Results are given in words; binding and its absence hold for the method and conditions named. Binding seen in cells or lysates may run through a third protein. Some binding calls cover weakened binding; strength is not graded here. For part of these data: Tags and fused reporters may be left off the sequences shown.

The chains behind the UniProt entries cited, without tags or fusion partners. Where a name states a change or a piece, a line headed by the entry shows the natural chain unless it says otherwise. A line that says so, or that is headed by a name, gives the form on record, which may keep a tag or linker. Residues count along the entry.
UniProt P61793: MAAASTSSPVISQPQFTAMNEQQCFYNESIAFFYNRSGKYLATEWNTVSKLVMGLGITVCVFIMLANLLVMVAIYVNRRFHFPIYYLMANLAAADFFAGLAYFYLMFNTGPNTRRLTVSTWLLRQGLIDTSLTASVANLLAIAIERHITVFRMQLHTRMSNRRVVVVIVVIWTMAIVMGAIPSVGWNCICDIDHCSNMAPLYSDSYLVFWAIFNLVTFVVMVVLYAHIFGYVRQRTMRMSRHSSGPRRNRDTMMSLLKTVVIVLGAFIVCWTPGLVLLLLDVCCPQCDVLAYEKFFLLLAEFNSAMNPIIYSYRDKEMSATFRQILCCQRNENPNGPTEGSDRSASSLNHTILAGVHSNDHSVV
GST-mouse LPA1 tail (aa 311-364): residues 311-364 of P61793
GST-LPA1ΔC: residues 311-361 of P61793
GST-LPA1-AAA (P61793, form named): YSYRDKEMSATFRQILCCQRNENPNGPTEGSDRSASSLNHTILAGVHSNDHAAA

For experiment [1], the target named is N-terminally tagged FLAG-LPA1 (UniProt P61793). Nature of the experiment: co-IP; HEK293 cell lysates (1% NP-40, 50 mM Tris pH 8.0, 150 mM NaCl) with mouse anti-FLAG IgG overnight at 4°C, protein G-Sepharose, immunoblot; cells serum starved or stimulated with 10 µM LPA for 5, 15 or 30 min (Fig. 2B), or in 10% serum (Fig. 6A). (In western blotting, separated proteins are transferred to a membrane and probed.)

Experiment [2] deals with GST-LPA1ΔC (mouse) (UniProt P61793). Nature of the experiment: pull-down; GST or GST fusion immobilised on glutathione beads, incubated 4-15 h with lysates of HEK293 cells transfected with FLAG-GIPC; immunoblot with anti-GIPC IgG; only the target purified.
Experiment [3] addresses GST-mouse LPA1 tail (aa 311-364) (mouse) (UniProt P61793). Described as above.
In experiment [4] the target is GST-LPA1-AAA (mouse) (UniProt P61793). Description: pull-down; 10 µg GST or GST fusion prebound to glutathione Sepharose beads, incubated with in vitro translated [35S]Met-labeled GIPC-PDZ in 50 mM Tris HCl pH 7.4, 100 mM NaCl, 0.5% NP-40 overnight at 4°C; autoradiography; only the target purified.
The target in experiment [5] is GST-mouse LPA1 tail (aa 311-364) (mouse) (UniProt P61793). Described as above.
The target in experiment [6] is T1, GST-GAIP (UniProt P49795).
T1 sequence: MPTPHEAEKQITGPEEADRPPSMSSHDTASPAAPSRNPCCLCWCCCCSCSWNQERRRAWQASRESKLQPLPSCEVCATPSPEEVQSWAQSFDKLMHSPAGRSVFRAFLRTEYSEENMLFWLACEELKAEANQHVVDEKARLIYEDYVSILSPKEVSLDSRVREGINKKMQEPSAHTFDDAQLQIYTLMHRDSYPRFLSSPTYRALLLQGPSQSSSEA
The experiment is described as above.

B1: C-terminally tagged GIPC-GFP (protein, UniProt O14908 1-333)
chain: MPLGLGRRKKAPPLVENEEAEPGRGGLGVGEPGPLGGGGSGGPQMGLPPPPPALRPRLVFHTQLAHGSPTGRIEGFTNVKELYGKIAEAFRLPTAEVMFCTLNTHKVDMDKLLGGQIGLEDFIFAHVKGQRKEVEVFKSEDALGLTITDNGAGYAFIKRIKEGSVIDHIHLISVGDMIEAINGQSLLGCRHYEVARLLKELPRGRTFTLKLTEPRKAFDMISQRSAGGRPGSGPQLGTGRGTLRLRSRGPATVEDLPSAFEEKAIEKVDDLLESYMGIRDTELAATMVELGKDKRNPDELAEALDERLGDFAFPDEFVFDVWGAIGDAKVGRY
As for B1, the binding entry in experiment [1] was “binds”.

B2: full-length GIPC (protein, UniProt O14908 1-333)
chain: B1 chain
Turning to B2, the binding result in experiment [1] is listed as “binds”.

B3: Endogenous GIPC (protein, UniProt O14908 1-333)
chain: B1 chain
Take B3: in experiment [1], the binding entry was “binds”.

B4: FLAG-GIPC (protein, UniProt O14908 1-333)
chain: B1 chain
Take B4: the binding result in experiment [2] is recorded as “no binding”; in experiment [3] it was “binds”.

B5: GIPC PDZ domain (aa 125-225) (domain or fragment, UniProt O14908 125-225)
chain: AHVKGQRKEVEVFKSEDALGLTITDNGAGYAFIKRIKEGSVIDHIHLISVGDMIEAINGQSLLGCRHYEVARLLKELPRGRTFTLKLTEPRKAFDMISQRS
modifications: [35S]Met-labeled
With B5, the values for the binding entry in experiment [4], in experiment [5] and in experiment [6] were “no binding”, “binds” and “binds”, respectively.

B6: HA-APPL (protein, UniProt Q9UKG1 1-709)
chain: MPGIDKLPIEETLEDSPQTRSLLGVFEEDATAISNYMNQLYQAMHRIYDAQNELSAATHLTSKLLKEYEKQRFPLGGDDEVMSSTLQQFSKVIDELSSCHAVLSTQLADAMMFPITQFKERDLKEILTLKEVFQIASNDHDAAINRYSRLSKKRENDKVKYEVTEDVYTSRKKQHQTMMHYFCALNTLQYKKKIALLEPLLGYMQAQISFFKMGSENLNEQLEEFLANIGTSVQNVRREMDSDIETMQQTIEDLEVASDPLYVPDPDPTKFPVNRNLTRKAGYLNARNKTGLVSSTWDRQFYFTQGGNLMSQARGDVAGGLAMDIDNCSVMAVDCEDRRYCFQITSFDGKKSSILQAESKKDHEEWICTINNISKQIYLSENPEETAARVNQSALEAVTPSPSFQQRHESLRPAAGQSRPPTARTSSSGSLGSESTNLAALSLDSLVAPDTPIQFDIISPVCEDQPGQAKAFGQGGRRTNPFGESGGSTKSETEDSILHQLFIVRFLGSMEVKSDDHPDVVYETMRQILAARAIHNIFRMTESHLLVTCDCLKLIDPQTQVTRLTFPLPCVVLYATHQENKRLFGFVLRTSSGRSESNLSSVCYIFESNNEGEKICDSVGLAKQIALHAELDRRASEKQKEIERVKEKQQKELNKQKQIEKDLEEQSRLIAASSRPNQASSEGQFVVLSSSQSEESDLGEGGKKRESEA
Turning to B6, the binding result in experiment [1] is “binds”.
